Assay results reported in the supplement of paper PMC8728848.
The other results are listed elsewhere or left out.

Assays:
Experiment in all cases: glycan array binding signal (z-score within array); higher = stronger binding
Conditions in all cases: glycan notation: IUPAC condensed, linker removed
[1] = target: Gal(b1-4)GlcNAc(b1-3)Gal(b1-4)GlcNAc(b1-2)[Gal(b1-4)GlcNAc(b1-3)Gal(b1-4)GlcNAc(b1-6)]Man(a1-6)[Gal(b1-4)GlcNAc(b1-3)Gal(b1-4)GlcNAc(b1-2)Man(a1-3)]Man(b1-4)GlcNAc(b1-4)GlcNAc
Summary of the method: (§1)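 Negative Z-scores can be read as non-binding. The Z-score is calculated within each array and then averaged across arrays of one protein sequence at different concentrations or buffers and across linkers. Arrays, 3228 in all, were curated from the Consortium for Functional Glycomics database and kept only where the protein sequence was available.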

[2] = target: Gal(b1-4)GlcNAc(b1-3)Gal(b1-4)GlcNAc(b1-2)[Gal(b1-4)GlcNAc(b1-3)Gal(b1-4)GlcNAc(b1-6)]Man(a1-6)[Gal(b1-4)GlcNAc(b1-3)Gal(b1-4)GlcNAc(b1-2)Man(a1-3)]Man(b1-4)GlcNAc(b1-4)[Fuc(a1-6)]GlcNAc
Summary of the method: as §1

[3] = target: Gal(b1-4)GlcNAc(b1-3)Gal(b1-4)GlcNAc(b1-3)Gal(b1-4)GlcNAc
Summary of the method: as §1

[4] = target: Gal(b1-4)GlcNAc(b1-3)Gal(b1-4)GlcNAc(b1-3)Gal(b1-4)GlcNAc(b1-2)Man(a1-3)[Gal(b1-4)GlcNAc(b1-3)Gal(b1-4)GlcNAc(b1-3)Gal(b1-4)GlcNAc(b1-2)Man(a1-6)]Man(b1-4)GlcNAc(b1-4)GlcNAc
Summary of the method: as §1

[5] = target: Gal(b1-4)GlcNAc(b1-3)Gal(b1-4)GlcNAc(b1-3)Gal(b1-4)GlcNAc(b1-2)Man(a1-3)[Gal(b1-4)GlcNAc(b1-3)Gal(b1-4)GlcNAc(b1-3)Gal(b1-4)GlcNAc(b1-2)Man(a1-6)]Man(b1-4)GlcNAc(b1-4)[Fuc(a1-6)]GlcNAc
Summary of the method: as §1

[6] = target: Gal(b1-4)GlcNAc(b1-3)Gal(b1-4)GlcNAc(b1-3)Gal(b1-4)GlcNAc(b1-2)[Gal(b1-4)GlcNAc(b1-3)Gal(b1-4)GlcNAc(b1-3)Gal(b1-4)GlcNAc(b1-6)]Man(a1-6)[Gal(b1-4)GlcNAc(b1-3)Gal(b1-4)GlcNAc(b1-3)Gal(b1-4)GlcNAc(b1-2)Man(a1-3)]Man(b1-4)GlcNAc(b1-4)[Fuc(a1-6)]GlcNAc
Summary of the method: as §1

[7] = target: Gal(b1-4)GlcNAc(b1-3)Gal(b1-4)GlcNAc(b1-3)Gal(b1-4)GlcNAc(b1-3)Gal(b1-4)GlcNAc(b1-2)Man(a1-3)[Gal(b1-4)GlcNAc(b1-3)Gal(b1-4)GlcNAc(b1-3)Gal(b1-4)GlcNAc(b1-3)Gal(b1-4)GlcNAc(b1-2)Man(a1-6)]Man(b1-4)GlcNAc(b1-4)GlcNAc
Summary of the method: as §1

[8] = target: Gal(b1-4)GlcNAc(b1-3)Gal(b1-4)GlcNAc(b1-3)Gal(b1-4)GlcNAc(b1-3)Gal(b1-4)GlcNAc(b1-2)Man(a1-3)[Gal(b1-4)GlcNAc(b1-3)Gal(b1-4)GlcNAc(b1-3)Gal(b1-4)GlcNAc(b1-3)Gal(b1-4)GlcNAc(b1-2)Man(a1-6)]Man(b1-4)GlcNAc(b1-4)[Fuc(a1-6)]GlcNAc
Summary of the method: as §1

[9] = target: Gal(b1-4)GlcNAc(b1-3)Gal(b1-4)GlcNAc(b1-3)Gal(b1-4)GlcNAc(b1-3)Gal(b1-4)GlcNAc(b1-2)[Gal(b1-4)GlcNAc(b1-3)Gal(b1-4)GlcNAc(b1-3)Gal(b1-4)GlcNAc(b1-3)Gal(b1-4)GlcNAc(b1-6)]Man(a1-6)[Gal(b1-4)GlcNAc(b1-3)Gal(b1-4)GlcNAc(b1-3)Gal(b1-4)GlcNAc(b1-3)Gal(b1-4)GlcNAc(b1-2)Man(a1-3)]Man(b1-4)GlcNAc(b1-4)[Fuc(a1-6)]GlcNAc
Summary of the method: as §1

[10] = target: Gal(b1-4)GlcNAc(b1-3)Gal(b1-4)GlcNAc(b1-3)Gal(b1-4)GlcNAc(b1-3)Gal(b1-4)GlcNAc(b1-3)Gal(b1-4)GlcNAc(b1-2)Man(a1-3)[Gal(b1-4)GlcNAc(b1-3)Gal(b1-4)GlcNAc(b1-3)Gal(b1-4)GlcNAc(b1-3)Gal(b1-4)GlcNAc(b1-3)Gal(b1-4)GlcNAc(b1-2)Man(a1-6)]Man(b1-4)GlcNAc(b1-4)GlcNAc
Summary of the method: as §1

[11] = target: Gal(b1-4)GlcNAc(b1-3)Gal(b1-4)GlcNAc(b1-3)Gal(b1-4)GlcNAc(b1-3)Gal(b1-4)GlcNAc(b1-3)Gal(b1-4)GlcNAc(b1-2)Man(a1-3)[Gal(b1-4)GlcNAc(b1-3)Gal(b1-4)GlcNAc(b1-3)Gal(b1-4)GlcNAc(b1-3)Gal(b1-4)GlcNAc(b1-3)Gal(b1-4)GlcNAc(b1-2)Man(a1-6)]Man(b1-4)GlcNAc(b1-4)[Fuc(a1-6)]GlcNAc
Summary of the method: as §1

[12] = target: Gal(b1-4)GlcNAc(b1-3)Gal(b1-4)GlcNAc(b1-3)Gal(b1-4)GlcNAc(b1-3)Gal(b1-4)GlcNAc(b1-3)Gal(b1-4)GlcNAc(b1-2)[Gal(b1-4)GlcNAc(b1-3)Gal(b1-4)GlcNAc(b1-3)Gal(b1-4)GlcNAc(b1-3)Gal(b1-4)GlcNAc(b1-3)Gal(b1-4)GlcNAc(b1-6)]Man(a1-6)[Gal(b1-4)GlcNAc(b1-3)Gal(b1-4)GlcNAc(b1-3)Gal(b1-4)GlcNAc(b1-3)Gal(b1-4)GlcNAc(b1-3)Gal(b1-4)GlcNAc(b1-2)Man(a1-3)]Man(b1-4)GlcNAc(b1-4)[Fuc(a1-6)]GlcNAc
Summary of the method: as §1

[13] = target: Gal(b1-4)GlcNAc(b1-3)Gal(b1-4)GlcNAc(b1-3)Gal(b1-4)GlcNAc(b1-3)Gal(b1-4)GlcNAc(b1-3)Gal(b1-4)GlcNAc(b1-3)Gal(b1-4)GlcNAc(b1-2)Man(a1-3)[Gal(b1-4)GlcNAc(b1-3)Gal(b1-4)GlcNAc(b1-3)Gal(b1-4)GlcNAc(b1-3)Gal(b1-4)GlcNAc(b1-3)Gal(b1-4)GlcNAc(b1-3)Gal(b1-4)GlcNAc(b1-2)Man(a1-6)]Man(b1-4)GlcNAc(b1-4)GlcNAc
Summary of the method: as §1

[14] = target: Gal(b1-4)GlcNAc(b1-3)Gal(b1-4)GlcNAc(b1-3)GalNAc
Summary of the method: as §1

[15] = target: Gal(b1-4)GlcNAc(b1-3)Gal(b1-4)GlcNAc(b1-3)[Gal(b1-4)GlcNAc(b1-3)Gal(b1-4)GlcNAc(b1-6)]GalNAc
Summary of the method: as §1

[16] = target: Gal(b1-4)GlcNAc(b1-3)Gal(b1-4)GlcNAc(b1-6)[Gal(b1-3)]GalNAc
Summary of the method: as §1

[17] = target: Gal(b1-4)GlcNAc(b1-3)Gal(b1-4)[Fuc(a1-3)]GlcNAc(b1-3)Gal(b1-4)[Fuc(a1-3)]GlcNAc
Summary of the method: as §1

[18] = target: Gal(b1-4)GlcNAc(b1-3)GalNAc
Summary of the method: as §1

[19] = target: Gal(b1-4)GlcNAc(b1-3)[Fuc(a1-3)GlcNAc(b1-6)]Gal(b1-4)Glc
Summary of the method: as §1

[20] = target: Gal(b1-4)GlcNAc(b1-3)[Gal(b1-4)GlcNAc(b1-6)]Gal(b1-4)GlcNAc
Summary of the method: as §1

[21] = target: Gal(b1-4)GlcNAc(b1-3)[GlcNAc(b1-6)]Gal(b1-4)GlcNAc
Summary of the method: as §1

[22] = target: Gal(b1-4)GlcNAc(b1-6)Gal(b1-4)GlcNAc
Summary of the method: as §1

[23] = target: Gal(b1-4)GlcNAc(b1-6)GalNAc
Summary of the method: as §1

[24] = target: Gal(b1-4)GlcNAc(b1-6)[Gal(b1-3)]GalNAc
Summary of the method: as §1

[25] = target: Gal(b1-4)GlcNAc(b1-6)[Gal(b1-4)GlcNAc(b1-3)]GalNAc
Summary of the method: as §1

Gal(b1-4)GlcNAc6P = target: Gal(b1-4)GlcNAc6P
Summary of the method: as §1

Gal(b1-6)Gal = target: Gal(b1-6)Gal
Summary of the method: as §1

Gal3S(b1-3)GalNAc = target: Gal3S(b1-3)GalNAc
Summary of the method: as §1

Gal3S(b1-3)GlcNAc = target: Gal3S(b1-3)GlcNAc
Summary of the method: as §1

[26] = target: Gal3S(b1-3)[Fuc(a1-4)]GlcNAc
Summary of the method: as §1

Gal3S(b1-4)Glc = target: Gal3S(b1-4)Glc
Summary of the method: as §1

Gal3S(b1-4)Glc6S = target: Gal3S(b1-4)Glc6S
Summary of the method: as §1

Gal3S(b1-4)GlcNAc = target: Gal3S(b1-4)GlcNAc
Summary of the method: as §1

[27] = target: Gal3S(b1-4)[Fuc(a1-3)]Glc6S
Summary of the method: as §1

[28] = target: Gal3S(b1-4)[Fuc(a1-3)]GlcNAc
Summary of the method: as §1

[29] = target: Gal3S(b1-4)[Fuc(a1-3)]GlcNAc6S
Summary of the method: as §1

Gal3S4S(b1-4)GlcNAc = target: Gal3S4S(b1-4)GlcNAc
Summary of the method: as §1

Gal3S6S(b1-4)GlcNAc = target: Gal3S6S(b1-4)GlcNAc
Summary of the method: as §1

Gal3S6S(b1-4)GlcNAc6S = target: Gal3S6S(b1-4)GlcNAc6S
Summary of the method: as §1

Gal4S(b1-4)GlcNAc = target: Gal4S(b1-4)GlcNAc
Summary of the method: as §1

Gal4S6S(b1-4)GlcNAc = target: Gal4S6S(b1-4)GlcNAc
Summary of the method: as §1

Gal6P(b1-4)GlcNAc = target: Gal6P(b1-4)GlcNAc
Summary of the method: as §1

Gal6S(b1-3)GlcNAc = target: Gal6S(b1-3)GlcNAc
Summary of the method: as §1

Gal6S(b1-3)GlcNAc6S = target: Gal6S(b1-3)GlcNAc6S
Summary of the method: as §1

Gal6S(b1-4)Glc = target: Gal6S(b1-4)Glc
Summary of the method: as §1

B1: Langerin K313I (Homo sapiens), Q9UJ71 (protein)
chain: STLNAQIPELKSDLEKASALNTKIRALQGSLENMSKLLKRQNDILQVVSQGWKYFKGNFYYFSLIPKTWYSAEQFCVSRNSHLTSVTSESEQEFLYKTAGGLIYWIGLTKAGMEGDWSWVDDTPFNKVQSARFWIPGEPNNAGNNEHCGNIKAPSLQAWNDAPCDITFLFICKRPYVPSEP
- glycan array binding signal (z-score) [1]: 0.318
- glycan array binding signal (z-score) [2]: 0.352
- glycan array binding signal (z-score) [3]: -0.303
- glycan array binding signal (z-score) [4]: 0.346
- glycan array binding signal (z-score) [5]: 0.227
- glycan array binding signal (z-score) [6]: 0.251
- glycan array binding signal (z-score) [7]: 0.149
- glycan array binding signal (z-score) [8]: 0.134
- glycan array binding signal (z-score) [9]: 0.147
- glycan array binding signal (z-score) [10]: -0.011
- glycan array binding signal (z-score) [11]: -0.085
- glycan array binding signal (z-score) [12]: 0.369
- glycan array binding signal (z-score) [13]: 0.037
- glycan array binding signal (z-score) [14]: -0.006
- glycan array binding signal (z-score) [15]: 0.191
- glycan array binding signal (z-score) [16]: 0.134
- glycan array binding signal (z-score) [17]: -0.16
- glycan array binding signal (z-score) [18]: -0.373
- glycan array binding signal (z-score) [19]: -0.384
- glycan array binding signal (z-score) [20]: -0.354
- glycan array binding signal (z-score) [21]: -0.314
- glycan array binding signal (z-score) [22]: -0.4
- glycan array binding signal (z-score) [23]: -0.274
- glycan array binding signal (z-score) [24]: -0.332
- glycan array binding signal (z-score) [25]: -0.299
- glycan array binding signal (z-score) (Gal(b1-4)GlcNAc6P): -0.339
- glycan array binding signal (z-score) (Gal(b1-6)Gal): -0.178
- glycan array binding signal (z-score) (Gal3S(b1-3)GalNAc): -0.388
- glycan array binding signal (z-score) (Gal3S(b1-3)GlcNAc): -0.376
- glycan array binding signal (z-score) [26]: 0.004
- glycan array binding signal (z-score) (Gal3S(b1-4)Glc): -0.242
- glycan array binding signal (z-score) (Gal3S(b1-4)Glc6S): -0.326
- glycan array binding signal (z-score) (Gal3S(b1-4)GlcNAc): -0.351
- glycan array binding signal (z-score) [27]: 0.389
- glycan array binding signal (z-score) [28]: -0.353
- glycan array binding signal (z-score) [29]: -0.39
- glycan array binding signal (z-score) (Gal3S4S(b1-4)GlcNAc): -0.338
- glycan array binding signal (z-score) (Gal3S6S(b1-4)GlcNAc): -0.296
- glycan array binding signal (z-score) (Gal3S6S(b1-4)GlcNAc6S): -0.401
- glycan array binding signal (z-score) (Gal4S(b1-4)GlcNAc): -0.384
- glycan array binding signal (z-score) (Gal4S6S(b1-4)GlcNAc): -0.392
- glycan array binding signal (z-score) (Gal6P(b1-4)GlcNAc): -0.298
- glycan array binding signal (z-score) (Gal6S(b1-3)GlcNAc): -0.362
- glycan array binding signal (z-score) (Gal6S(b1-3)GlcNAc6S): -0.386
- glycan array binding signal (z-score) (Gal6S(b1-4)Glc): -0.324
